Measurements published in article PMC4336329 (PLoS ONE, 2015).
In all, about 310,000 compounds went through this assay and about 2,200 (0.71%) showed an effect of 50% or more. Effects have a minus sign here. This is one part of the list.

biological target: human ether-à-go-go-related gene (hERG) potassium channel (human, UniProt Q12809); assay: primary screen, population patch clamp on CHO cells stably expressing hERG
Sequence (Q12809 whole entry, looked up): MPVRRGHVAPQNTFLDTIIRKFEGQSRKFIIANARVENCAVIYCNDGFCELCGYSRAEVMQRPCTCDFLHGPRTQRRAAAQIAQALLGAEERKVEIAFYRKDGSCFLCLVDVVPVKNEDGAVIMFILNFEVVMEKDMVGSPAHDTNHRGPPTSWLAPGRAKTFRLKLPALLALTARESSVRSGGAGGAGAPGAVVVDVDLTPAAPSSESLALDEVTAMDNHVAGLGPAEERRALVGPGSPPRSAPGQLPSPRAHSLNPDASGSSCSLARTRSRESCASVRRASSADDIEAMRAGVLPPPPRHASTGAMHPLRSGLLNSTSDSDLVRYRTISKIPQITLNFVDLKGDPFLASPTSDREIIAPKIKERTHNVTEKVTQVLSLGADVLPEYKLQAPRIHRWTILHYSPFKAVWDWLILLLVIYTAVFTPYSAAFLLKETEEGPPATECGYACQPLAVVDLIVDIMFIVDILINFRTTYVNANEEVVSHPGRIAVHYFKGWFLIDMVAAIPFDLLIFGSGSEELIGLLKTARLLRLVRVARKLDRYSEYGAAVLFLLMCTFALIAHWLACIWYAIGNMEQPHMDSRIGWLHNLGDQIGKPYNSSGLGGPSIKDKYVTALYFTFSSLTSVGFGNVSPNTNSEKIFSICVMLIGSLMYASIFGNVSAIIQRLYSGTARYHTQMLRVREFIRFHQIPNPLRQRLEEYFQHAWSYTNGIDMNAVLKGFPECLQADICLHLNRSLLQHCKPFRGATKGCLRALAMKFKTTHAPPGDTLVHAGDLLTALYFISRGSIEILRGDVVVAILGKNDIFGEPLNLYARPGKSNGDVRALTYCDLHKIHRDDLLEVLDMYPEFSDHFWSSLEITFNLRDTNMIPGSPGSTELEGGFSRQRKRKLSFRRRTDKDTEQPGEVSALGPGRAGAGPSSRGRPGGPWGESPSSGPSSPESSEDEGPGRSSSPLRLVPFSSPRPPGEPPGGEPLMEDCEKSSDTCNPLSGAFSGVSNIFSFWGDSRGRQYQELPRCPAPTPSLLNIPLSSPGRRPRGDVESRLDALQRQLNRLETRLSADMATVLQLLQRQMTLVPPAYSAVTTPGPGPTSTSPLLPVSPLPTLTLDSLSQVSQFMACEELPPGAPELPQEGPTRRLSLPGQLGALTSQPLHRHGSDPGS

Compound | hERG current change (%, negative = inhibition) at 1uM [%]
Cc1noc(C)c1S(=O)(=O)N1CCC(C(=O)N2CCN(c3ccc(F)cc3)CC2)CC1 | -8.56
COCCn1c(NC(=S)NC(=O)C23CC4CC(CC(C4)C2)C3)cc(=O)[nH]c1=O | 8.98
COc1ccc(CN2CCNC(=O)C2CC(=O)N(C)Cc2ccon2)cc1OC (stereo not shown) | 4.57
Cc1ccc(C(=O)C(C)OC(=O)CN2C(=O)NC3(CCCC3)C2=O)cc1 (stereo not shown) | 16
Cc1ccc(N(C(=O)c2csnn2)C(C(=O)NC(C)(C)C)c2cccnc2)cc1C (stereo not shown) | 5.96
COc1ccc(-c2c(C#Cc3ccsc3)c3cc(-c4ccc5[nH]ccc5c4)ccc3n2C)cc1 | 14.9
COc1cc2c(cc1OC)CN(C(=O)c1cccc(S(=O)(=O)N(C)C)c1)CC2 | 3.68
Cc1ccc(C)c(C(C)NC(=S)NC2CCCCC2)c1 (stereo not shown) | 6.88
C=CCN(CC=C)C(=O)c1ccc2nc(Cc3ccc(OC)c(OC)c3)oc2c1 | 15.1
COc1ccc(N2CCN(C(=O)COC(=O)CCS(=O)(=O)c3ccc(C)cc3)CC2)cc1 | 5.98
COC(=O)Cc1ccc(O)c(N)c1 | 11.4
Cc1ccnc(NC(=O)Nc2ccc3c(c2)OCO3)c1 | 16.4
COc1ccc(NC(=O)CN(c2ccc([N+](=O)[O-])cc2)S(=O)(=O)c2ccccc2)cc1 | 9.36
Cc1ccc(NC(=O)CC2SC(=O)NC2=O)cc1 (stereo not shown) | 8.89
CCCOc1ccc(-c2nn(-c3ccccc3)cc2/C=C2\SC(N)=NC2=O)cc1C | 8.62
Cc1cccc(OCC(=O)Nc2nnc(S(=O)(=O)N3CCCCC3)s2)c1 | 2
COc1cccc(CNc2ccccn2)c1O | 13.5
COc1cc(Br)cc(/C=N/c2ncn[nH]2)c1O | 15.7
CS(=O)(=O)c1nc(S(=O)(=O)c2ccc(Cl)cc2)c(N2CCC3(CC2)OCCO3)s1 | 6.41
CCCCN1C(=O)C(O)(CC(=O)c2ccccc2OC)c2ccccc21 (stereo not shown) | 2.21
COc1ccccc1C(=O)n1nc(-c2ccccc2)nc1N | 10.2
Cc1cc(NC2C3CC4CC(C3)CC2C4)n2nnnc2n1 (stereo not shown) | 12

Compound | hERG current change (%, negative = inhibition) at 1uM [%]
CCOc1ccc(NC(=O)c2ccc(S(=O)(=O)N3CCOCC3)cc2)cc1 | 18.4
COc1cccc(-c2nc(CS(=O)(=O)CC(=O)NCC(C)c3ccccc3)c(C)o2)c1 (stereo not shown) | -2.01
CCCCN(C)C1=Nc2cccc3cccc1c23 | -54.9
NC(=O)CC(NC(=O)Cc1cccc2ccccc12)c1ccc(NCc2ccc(F)c(F)c2)c([N+](=O)[O-])c1 (stereo not shown) | 0.487
CC(C)CCNC(=O)C1CC(=O)N(C2CCCC2)C1 (stereo not shown) | -3.15
CSc1n[nH]c(=O)n1-c1cccc(Cl)c1 | 6.51
CCOc1ccc(CNC(=O)CCc2cn(Cc3ccccc3)c3ccccc23)cc1 | -1.72
CC1CCN(C(=O)c2cc(Cl)ccc2NC(=O)c2ccco2)CC1 | 19.5
CC(C)OC(=O)c1nn2c(C(F)(F)F)cc(-c3ccc(Br)o3)nc2c1Br | 9.7
COc1cc(C(=O)NCC(c2cccs2)N(C)C)cc(Cl)c1OC(C)C (stereo not shown) | 4.47
O=C(O)c1ccc2c(c1)C(=O)N(c1ccc(OCc3ccccc3)cc1)C2=O | 17.1
CS(=O)(=O)c1ccc2nc(NC(=O)Nc3ccccc3F)sc2c1 | 20.8
N#C/C(=C\c1ccc(Cl)cc1)c1n[nH]c(Cn2cncn2)n1 | 9.99
O=C(CSc1ncccc1C(=O)O)NC1CCCCCCC1 | 7.77
CCN1CCN(c2ccc(S(=O)(=O)N3CCCCC3)cc2NC(=O)c2cccc(NC(C)=O)c2)CC1 | -7.12
CCC(=O)N1c2ccc(S(=O)(=O)N3CCN(c4cc(C)ccc4C)CC3)cc2CC1C (stereo not shown) | 17.2
O=C(c1ccco1)N1CCN=C1SCc1ccccc1F | 6.2
CC1CCCCN1CC(=O)Nc1ccc(N2CCCCCC2)cc1.O=C(O)C(=O)O (stereo not shown) | 6.37
NC(=O)CSc1nc2ccc([N+](=O)[O-])cc2[nH]1 | 15.5
Cc1ccc2c(c1)N(C(=O)CCC(=O)NC1CCC(C)CC1)CCO2 (stereo not shown) | 2.51
O=C(NNS(=O)(=O)c1ccccc1)C1CCN(S(=O)(=O)c2ccc(Cl)cc2)CC1 | -5.78
COc1cnc(-c2ccccn2)[nH]c1=O | 5.52

Compound | hERG current change (%, negative = inhibition) at 1uM [%]
Cc1ccc(C(=O)N2CCN(c3ccc([N+](=O)[O-])cc3)CC2)o1 | -79
O=C(NNC(=S)Nc1ccc(F)cc1)c1ccccc1OC(F)F | 6.53
COc1ccc(-c2nc3ccccn3c2CN2CCN(c3ccccc3F)CC2)cc1 | 8.83
Cc1ccc(C(=O)CSc2nc(-c3ccccc3)cc(=O)[nH]2)cc1 | -2.33
COc1c(C)cccc1C(=O)Nc1ccc(N2CCN(C(=O)c3ccccc3C)CC2)cc1 | 18.8
Cc1c(Cl)cccc1NC(=O)CCN1C(=O)C2CC=CCC2C1=O (stereo not shown) | 11.7
O=c1[nH]c(/C(Cl)=C/c2cccc(F)c2)nc2cc(C(F)(F)F)ccc12 | 14.1
Cc1cc(C)c(N(CC(=O)NC(C)(C)C)C(=O)CNC(=O)c2cccs2)c(C)c1 | 13.3
O=c1c2cccc3c2c(nn1CN1CCOCC1)-c1ccccc1-3 | -15.3
COc1ccc(OC)c(NC=C2C(=O)OC3(CCCCC3)OC2=O)c1 | -4.88
CC1CN(C)CCC1OC(=O)c1ccccc1.Cl (stereo not shown) | 3.72
COc1ccccc1C1N(c2ccc(F)cc2)C(=O)C2CCCN21 (stereo not shown) | 13.3
CCOC(=O)c1cc(C(=O)NN)c(=O)[nH]c1C | 17.5
N#Cc1ccc(-c2cccnc2)nc1SCC(N)=O | 7.63
O=C1C=C(c2ccc(-c3ccccc3)c(F)c2)C[C@@H](c2ccc(F)cc2)C1 | 6.88
CN(CC(=O)NCCc1ccc(S(N)(=O)=O)cc1)S(=O)(=O)/C=C/c1ccccc1 | 6.03
Cl.O=[N+]([O-])c1ccc(COc2cccc(CNc3ccc(F)cc3)c2)cc1 | -13
COc1ccccc1NC(=O)Nn1cnnc1 | 12.9
Cc1ccc(NC(=S)N2CCN(c3ncccn3)CC2)c(C)c1 | 1.62
O=S(=O)(c1ccccc1)N1CCN(c2cccc(Cl)c2)CC1 | 9.4
O=C(O)c1cccnc1SC1CC(=O)N(Cc2ccccc2)C1=O (stereo not shown) | 1.23
O=C(Nc1ccc(O)c2c(=O)cc(-c3cccc(Cl)c3)oc12)c1ccc(F)cc1 | 4.42

Compound | hERG current change (%, negative = inhibition) at 1uM [%]
Cc1oc2c(CN3CCOCC3)c(O)ccc2c(=O)c1-c1ccc(Cl)cc1 | 3.22
Cc1ccccc1C(=O)NCc1nnc(SCC(=O)N2c3ccccc3Sc3ccccc32)n1C | 8.07
COc1ccc(NC(=O)c2ccc3c(=O)n(CC4CCCO4)c(=S)[nH]c3c2)c(OC)c1 (stereo not shown) | 17.8
CC(C)Oc1ccc(C(=O)NC2CCN(Cc3ccccc3)CC2)cc1 | -21
CCOC(=O)c1c(N)sc2c1CCS(=O)(=O)C2 | 11.2
CCC(OC(=O)C(CC(C)C)NC(=O)c1ccccc1)C(=O)Nc1nnc(C)s1 (stereo not shown) | 9.74
N#CC1(c2ccc(NC(=O)c3ccccc3F)cc2)CCCC1 | 12.6
O=C(CCN1C(=O)/C(=C\c2cccs2)SC1=S)Nc1ccc(C(=O)O)cc1 | 11.3
c1ccc(CNc2nc(-c3ccccc3)nc3ccccc23)cc1 | 6.51
Cc1cccc(NC(=O)c2cc(Cl)ccc2[N+](=O)[O-])c1 | 0.931
CC1CCc2c(sc(NC(=O)C(=O)NCc3ccco3)c2C#N)C1 (stereo not shown) | -63.6
CCOC(=O)Cc1csc(NC(=O)CSc2nc(=O)[nH]c3c2CCC3)n1 | 7.8
CCC(CC)C(=O)NCCc1cc2cc(C)c(C)cc2[nH]c1=O | 13.6
Nc1nc(=S)c2ncn([C@@H]3O[C@H](CO)[C@@H](O)[C@H]3O)c2[nH]1 | 13.9
COc1cccc2cc(-c3cc(=O)oc4ccc(OC(=O)N(C)C)cc34)oc12 | 22.2
Cc1ccc(-c2csc3nc[nH]c(=S)c23)cc1 | 12.5
O=C(Cn1cnc2cc([N+](=O)[O-])ccc2c1=O)NCCc1ccc(F)cc1 | -3.18
COc1ccccc1NC(=S)NNC(=O)c1cc(C)nn1C | 6.61
O=C(c1ccc2nc(N3CCOCC3)sc2c1)N1CCC(Cc2ccccc2)CC1 | -0.35
O=C(CSCc1ccccc1Cl)NNC(=S)Nc1ccccc1 | 24.3
O=c1cc(O)c2c(=O)[nH]c(=O)n(-c3ccccc3)c2[nH]1 | 12.2
Cc1cccc(-c2nnc(SCC(=O)N3CCOCC3)o2)c1 | 15.5
